Assay results taken from paper PMC10582012.
No constants are given. Whether binding was seen depends on the method and setting. Binding seen in cells or lysates may run through a third protein. Some binding calls cover weakened binding; strength is not graded here.

By UniProt entry, the sequences of proteins in these tests, tags left out. Where a name states a change or a piece, a line headed by the entry shows the natural chain unless it says otherwise.
UniProt P35222: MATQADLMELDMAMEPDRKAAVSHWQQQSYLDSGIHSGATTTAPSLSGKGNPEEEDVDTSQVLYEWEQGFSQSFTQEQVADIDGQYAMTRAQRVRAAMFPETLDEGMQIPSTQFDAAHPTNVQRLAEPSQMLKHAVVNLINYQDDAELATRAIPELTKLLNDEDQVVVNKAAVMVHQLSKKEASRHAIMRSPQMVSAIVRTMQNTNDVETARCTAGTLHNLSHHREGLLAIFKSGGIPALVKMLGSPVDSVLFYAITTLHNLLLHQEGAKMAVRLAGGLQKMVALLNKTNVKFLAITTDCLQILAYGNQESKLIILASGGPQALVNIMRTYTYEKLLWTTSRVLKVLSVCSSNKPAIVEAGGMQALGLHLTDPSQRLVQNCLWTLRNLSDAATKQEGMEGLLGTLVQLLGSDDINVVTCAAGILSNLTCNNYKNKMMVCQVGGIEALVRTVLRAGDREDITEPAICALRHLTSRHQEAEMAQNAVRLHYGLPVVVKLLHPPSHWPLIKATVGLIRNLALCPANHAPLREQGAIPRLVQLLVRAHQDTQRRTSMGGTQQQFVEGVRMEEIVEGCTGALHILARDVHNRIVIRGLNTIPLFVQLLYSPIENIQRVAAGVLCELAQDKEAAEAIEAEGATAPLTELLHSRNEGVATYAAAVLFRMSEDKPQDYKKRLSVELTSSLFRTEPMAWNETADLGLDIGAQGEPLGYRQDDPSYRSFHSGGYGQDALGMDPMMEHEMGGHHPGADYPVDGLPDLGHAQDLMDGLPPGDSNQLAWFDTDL
UniProt Q13200: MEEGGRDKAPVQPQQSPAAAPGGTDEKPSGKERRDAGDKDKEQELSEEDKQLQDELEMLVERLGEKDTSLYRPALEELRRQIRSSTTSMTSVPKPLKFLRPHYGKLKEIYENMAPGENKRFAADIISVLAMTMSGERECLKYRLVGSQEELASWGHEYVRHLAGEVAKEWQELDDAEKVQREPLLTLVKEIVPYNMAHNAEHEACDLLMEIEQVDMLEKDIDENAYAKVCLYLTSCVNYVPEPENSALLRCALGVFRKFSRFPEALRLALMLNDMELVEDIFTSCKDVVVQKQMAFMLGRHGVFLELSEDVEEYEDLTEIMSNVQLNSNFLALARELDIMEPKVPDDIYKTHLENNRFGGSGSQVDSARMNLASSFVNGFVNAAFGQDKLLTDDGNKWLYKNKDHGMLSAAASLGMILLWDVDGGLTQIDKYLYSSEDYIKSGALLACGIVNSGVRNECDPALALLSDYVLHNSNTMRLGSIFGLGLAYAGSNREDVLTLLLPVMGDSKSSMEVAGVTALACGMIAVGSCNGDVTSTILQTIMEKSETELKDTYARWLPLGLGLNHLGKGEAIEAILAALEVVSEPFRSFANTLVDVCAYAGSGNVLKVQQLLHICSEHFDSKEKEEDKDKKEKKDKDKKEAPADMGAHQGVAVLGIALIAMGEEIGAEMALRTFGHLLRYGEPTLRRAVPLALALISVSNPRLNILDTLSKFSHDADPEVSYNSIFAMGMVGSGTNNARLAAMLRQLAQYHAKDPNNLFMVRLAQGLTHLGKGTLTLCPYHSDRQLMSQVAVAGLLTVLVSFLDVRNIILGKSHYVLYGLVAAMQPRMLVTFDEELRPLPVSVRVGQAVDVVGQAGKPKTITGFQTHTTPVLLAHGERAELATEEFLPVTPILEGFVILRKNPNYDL

Experiments:
[1] = target: full-length myc-tagged β-catenin (UniProt P35222); assay: co-IP; tagged proteins co-transfected into HEK-293T cells; IP with anti-Flag, anti-HA or anti-myc antibodies; some panels with tagged ubiquitin and MG132; lysis buffer 40 mM Tris, 150 mM NaCl, 1% Triton X-100
[2] = target: full-length Flag-tagged PSMD2 (UniProt Q13200); assay: as above
[3] = target: β-catenin, endogenous in breast cancer cells (human (endogenous in MDA-231 and BT549)) (UniProt P35222); assay: co-IP; endogenous proteins in MDA-231 and BT549 lysates; anti-RACK1, anti-β-catenin or anti-PSMD2 antibodies; lysis buffer 40 mM Tris, 150 mM NaCl, 1% Triton X-100; also in RACK1-silenced, RACK1-rescued and β-catenin-silenced cells and in cells transfected with UB-HA and treated with MG132
[4] = target: phospho-mimetic β-catenin-S33E/S37E/T41E/S45E, myc-tagged (UniProt P35222); assay: co-IP; tagged proteins co-transfected into HEK-293T cells; IP with anti-Flag, anti-HA or anti-myc antibodies; some panels with tagged ubiquitin and MG132; lysis buffer 40 mM Tris, 150 mM NaCl, 1% Triton X-100
[5] = target: HA-tagged full-length PSMD2 (UniProt Q13200); assay: co-IP; HEK-293T cells with exogenous β-catenin and PSMD2 in the presence of elevated RACK1 expression
[6] = target: PSMD2, endogenous in HEK-293T cells (human (endogenous in HEK-293T)) (UniProt Q13200); assay: co-IP; HEK-293T cells transfected with increasing amounts of RACK1 plasmids; IP with anti-PSMD2 antibodies; endogenous PSMD2 and β-catenin
[7] = target: PSMD2, endogenous in breast cancer cells (human (endogenous in MDA-231 and BT549)) (UniProt Q13200); assay: co-IP; endogenous proteins in MDA-231 and BT549 lysates; anti-RACK1, anti-β-catenin or anti-PSMD2 antibodies; lysis buffer 40 mM Tris, 150 mM NaCl, 1% Triton X-100; also in RACK1-silenced, RACK1-rescued and β-catenin-silenced cells and in cells transfected with UB-HA and treated with MG132

## HA-tagged full-length PSMD2 (from UniProt Q13200 1-908)
[1]
  binding: binds

## N-terminal truncated β-catenin-ΔN, HA-tagged (from UniProt P35222 101-781) (domain or fragment)
[2]
  binding: no binding

## PSMD2, endogenous in breast cancer cells (from UniProt Q13200 1-908)
[3]
  binding: binds

## full-length Flag-tagged PSMD2 (from UniProt Q13200 1-908)
[4]
  binding: binds

## full-length HA-tagged β-catenin (from UniProt P35222 1-781)
[2]
  binding: binds

## full-length myc-tagged β-catenin (from UniProt P35222 1-781)
[5]
  binding: binds
[2]
  binding: binds

## phospho-deficient β-catenin-S33A/S37A/T41A/S45A, HA-tagged (from UniProt P35222 1-781)
[2]
  binding: no binding

## phospho-mimetic β-catenin-S33E/S37E/T41E/S45E, myc-tagged (from UniProt P35222 1-781)
[2]
  binding: binds

## β-catenin, endogenous in HEK-293T cells (from UniProt P35222 1-781)
[6]
  binding: binds

## β-catenin, endogenous in breast cancer cells (from UniProt P35222 1-781)
[7]
  binding: binds
